Results published in PubChem BioAssay AID652104 (National Center for Advancing Translational Sciences (NCATS), 2013).
The whole screen tested about 410,000 compounds, of which about 7,200 (1.8%) were called active. Inconclusive results, whose numbers are uncertain, are shown with a selection of clear calls. Calls come from the whole dose curve; as a rule, active = well fitted activation curve with a large enough effect; inconclusive = small, poorly fitted or top-dose-only effect, or another doubt; inactive = no such curve, though single readings can be large or run the other way. Potencies of inconclusive entries are left out as doubtful fits.

Assay: qHTS of TDP-43 Inhibitors; note: nearly all actives have a fitted effect of over 50% in size; for growth rescue (activation): % of control where 0% means no effect
Settings: TDP-43 expressing yeast growth rescue, BacTiter-Glo, 24 h; growth rescue (activation): at 46.1 µM (top of the series) unless noted
In short: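 Readout is BacTiter-Glo luminescence of cell growth, so inhibitors register as activators. TDP-43-expressing yeast at OD600=0.02 in galactose medium, after raffinose pregrowth to mid-log, were incubated with compound for 24 hr at 30 deg C.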
Potency is the fitted concentration of half-maximal effect; tags give direction and shape of the fitted curve.

Structure (SMILES) | Potency | growth rescue (activation)
CCC1Nc2ncnc(N3CCc4ccccc4C3)c2N(Cc2ccc(Br)cc2)C1=O (centres undefined) | active: 35.5 µM | 
Cc1ccnn1CC(=O)N/N=C/c1cn[nH]c1-c1ccc(F)cc1 |  | inactive: -0.523%
O=C(Nn1cc(C(=O)Nc2ccccc2F)c2ccccc2c1=O)c1cnccn1 |  | inactive: -6.52%
COc1cc(C2N(c3cc(C)on3)C(=O)C3CCCN32)cc(OC)c1OC (centres undefined) | inconclusive [activator, full curve, poor fit] | 
Cc1nc(N2CCN(c3ccccn3)CC2)c2c(C)c(C(=O)Nc3c(F)cc(F)cc3Br)sc2n1 | inconclusive [activator, partial curve, poor fit] | 
Cc1cccc(Nc2ccc(C(=O)O)cc2[N+](=O)[O-])c1C | inconclusive [activator, partial curve] | 
O=C1C=C(/C=C/c2ccccc2)C[C@@H](c2ccc(F)cc2)C1 | inconclusive [activator, single point] | 
CC(=O)N1CCOc2ccc(S(=O)(=O)NC[C@H]3O[C@@H](n4cnc5c(N)ncnc54)[C@H](O)[C@@H]3O)cc21 | inconclusive [activator, partial curve] | 
Cc1ccccc1S(=O)(=O)Oc1cccc2c(O)cccc12 | inconclusive [activator, partial curve] | 
CC1(C)CC(=O)C(CS(=O)(=O)c2ccccc2)=C(O)C1 |  | inactive: 27.9%
Cc1cccc(NC(=O)CSc2cn(CC(=O)N3CCOCC3)c3ccccc23)c1 | inconclusive [activator, partial curve, poor fit] | 
CCCC(=O)N/C(N)=N/c1nc2ccccc2o1 | active: 12.6 µM | 
Cc1ccc(CNC(=O)c2cnc3ccccc3n2)cc1 | inconclusive [activator, single point] | 
COc1cc(-c2noc(-c3ccc(NC4CCCCC4)c([N+](=O)[O-])c3)n2)cc(OC)c1OC |  | inactive: 13.6%
COc1ccc(NC(=O)CN(C)S(=O)(=O)c2ccc3c(c2)CCCN3C(C)=O)cc1Cl |  | inactive: 20.1%
Cc1cc(Nc2ccc(C(C)C)cc2)nc(-n2nc(C)cc2C)n1 | active: 20 µM | 
O=C1CC2(CCN(C(=O)c3ccccc3Br)CC2)Oc2ccccc21 |  | inconclusive: 41.3% [activator]
Cc1nnc(SCc2ccccc2Cl)c2cc3occc3n12 | active: 35.5 µM | 
Cc1noc(C)c1COc1ccc(C(=O)OCC(=O)NC2CCCCC2C)cc1 (centres undefined) | inconclusive [activator, partial curve] | 
CC(C)Oc1cccc(C(=O)Nc2ccc(-c3nc4cc(Cl)cc(Cl)c4o3)cc2)c1 |  | inactive: 21.5%
Cc1nc(N2CCN(S(=O)(=O)c3cccs3)CC2)c2c(-c3ccccc3)c(C)sc2n1 | inconclusive [activator, partial curve, poor fit] | 
C/C(=N/Oc1nc(C)cc(C)n1)c1ccc(Cl)cc1Cl | inconclusive [activator, single point] | 
O=C(Nc1ccc(F)cc1)C1CC2CCC1C2 (centres undefined) | inconclusive [activator, partial curve, poor fit] | 

Structure (SMILES) | Potency | growth rescue (activation)
CCOC(=O)c1cnc(SC2CC(=O)N(c3ccccc3)C2=O)nc1N (centres undefined) |  | inactive: -9.92%
O=c1[nH]cnc2scc(C3COc4ccccc4O3)c12 (centres undefined) | inconclusive [activator, single point] | 
NC(=S)N/N=C/c1ccccc1OCCSc1ccc(Cl)cc1 | inconclusive [activator, partial curve] | 
Cc1oc2cc3oc(=O)cc(C)c3cc2c1C | inconclusive [activator, partial curve] | 
COc1ccc(OCc2cc(C(=O)N(C)CCC3CCOCC3)no2)c(Cl)c1 | inconclusive [activator, single point] | 
COc1ccc2[nH]c(C(=O)N(C)Cc3ccccc3)c(C)c2c1 | inconclusive [activator, single point] | 
Cc1ccc(CNC(=O)c2cccc(-n3cnc4cccnc43)c2)cc1 | inconclusive [activator, single point] | 
Cc1ccc(NC(=O)c2ccc(Cn3cc([N+](=O)[O-])cn3)cc2)c(C)c1 | inconclusive [activator, partial curve] | 
CCCCNc1nc2c(c(=O)n(Cc3ccc(Cl)c(Cl)c3)c(=O)n2C)n1C | inconclusive [activator, partial curve, poor fit] | 
COc1cc(OC)cc(-c2cc3nc(C)c(CCC(=O)NC(C)CCc4ccco4)c(C)n3n2)c1 (centres undefined) | inconclusive [activator, single point] | 
COc1ccc(CCNC(=O)c2cccc(Br)c2)cc1OC | inconclusive [activator, partial curve, poor fit] | 
COc1cccc(CN2CCC2(C)C(=O)NCCc2ccccn2)c1OC (centres undefined) | inconclusive [activator, partial curve, poor fit] | 
COc1ccc(-c2noc(-c3ccc(N4CCC(C)CC4)c([N+](=O)[O-])c3)n2)cc1OC |  | inactive: 12.6%
O=C(NCCc1csc2nc(-c3cccc(F)c3)nn12)c1ccc(Br)o1 | active: 35.5 µM | 
O=c1[nH]ncc(N2CCN(C(c3ccccc3)c3ccccc3)CC2)c1Cl |  | inactive: 15.5%
COc1ccc(C2c3[nH]c4ccc(OC)cc4c3CCN2C(=O)Nc2ccccc2)cc1 (centres undefined) | active: 20 µM | 
O=C(Nc1cccnc1)c1sc(Nc2ccccc2F)nc1-c1ccccc1 |  | inactive: 16.8%
Cc1ccc2cc(C#N)c(NCCNC(=O)C3CC3)nc2c1C | inconclusive [activator, partial curve] | 
O=c1oc2cc(O)ccc2cc1-c1ccc(F)cc1 | inconclusive [activator, partial curve] | 
CSc1ncc(Cl)c(C(=O)Nc2ccc(C)c(C)c2)n1 | inconclusive [activator, single point] | 
Oc1ccc(N2CCN(c3ncnc4sc(-c5ccccc5)cc34)CC2)cc1 | active: 11.2 µM | 
O=C1SCC(c2ccc(Cl)cc2Cl)=NN1Cc1nnc(-c2ccccc2)o1 | inconclusive [activator, partial curve] | 
Cc1ccc(C)c(NC(=O)c2cc3ccccc3o2)c1 | inconclusive [activator, partial curve] | 

Structure (SMILES) | Potency | growth rescue (activation)
COc1ccccc1NC(=O)C1CCN(c2cnccn2)CC1 | inconclusive [activator, partial curve] | 
CC(C)N(Cc1nc(-c2ccccc2)no1)C(=O)c1ccc(Cl)cc1 | inconclusive [activator, partial curve] | 
CC1(C(=O)NS(=O)(=O)c2ccccc2)CCN1C(=O)Cc1ccc(-c2ccccc2)cc1 (centres undefined) | inconclusive [activator, partial curve] | 
COc1ccc(-c2cc(=O)oc3c4c(ccc23)OCN(Cc2cccc(OC)c2)C4)cc1 |  | inactive: -19.5%
COC(=O)c1ccccc1NC(=O)Cn1c(=O)n(CCCC(=O)NCc2ccccc2OC)c(=O)c2ccccc21 |  | inactive: 9.72%
CC(C)(C)C1CCC(C(=O)Nc2ccccc2)CC1 (centres undefined) | inconclusive [activator, single point] | 
CCOc1ccc(-n2nc(CO)c(C(=O)NCc3cccc(OC)c3)n2)cc1 | inconclusive [activator, full curve, poor fit] | 
Cc1cc(C)c(C(=O)COc2cccnc2[N+](=O)[O-])cc1C | inconclusive [activator, single point] | 
C=CCn1c(CCNC(=O)c2cccs2)n[nH]c1=S | inconclusive [activator, partial curve, poor fit] | 
Cc1cc(C)c2c(n1)SCCN2C(=O)Nc1ccc(C(=O)Nc2ccc(C(C)C)cc2)cc1 |  | inactive: 7.26%
COc1ccc(-c2csc(Nc3ccccn3)n2)cc1 | active: 3.55 µM | 
COc1cc(NC(=O)c2ccc(-n3cnc4cccnc43)cc2)cc(OC)c1 |  | inactive: 4.35%
OC[C@H]1OC(Nc2ccc(N=Nc3ccccc3)cc2)[C@@H](O)[C@@H](O)[C@@H]1O (some centres undefined) | inconclusive [activator, partial curve] | 
COc1cc(NC(=S)NCc2cccs2)cc(OC)c1 | inconclusive [activator, partial curve] | 
O=C(O)c1cccc(N/N=C/c2ccc(OC(F)(F)F)cc2)c1 | inconclusive [activator, single point] | 
CC(=O)c1cccc(NC(=O)CSCc2ccccc2)c1 | inconclusive [activator, partial curve] | 
Cc1ccc2oc(-c3ccc(Cl)c(NC(=O)c4ccc(OC(C)C)cc4)c3)nc2c1 | inconclusive [activator, partial curve] | 
O=C1c2ccccc2C(=O)c2c(Nc3ccc(CCO)cc3)ccc(O)c21 |  | inactive: -15.9%
O=C(CSc1nnc(COc2ccc(Cl)cc2)o1)N1CCCCC1 | inconclusive [activator, partial curve] | 
CC1CCCCC1NC(=O)c1cc(Cl)nc2ccccc12 (centres undefined) | inconclusive [activator, partial curve] | 
CC(=O)C(C)Oc1ccc2c3c(c(=O)oc2c1)CCCC3 (centres undefined) | inconclusive [activator, single point] | 
CCc1ccc2nc(N)sc2c1 | inconclusive [activator, single point] | 
O=C(Oc1cccc2c(O)cccc12)c1ccccc1 | inconclusive [activator, partial curve] | 
